Test results as given in PubChem BioAssay AID1508624 (National Center for Advancing Translational Sciences (NCATS), 2021).
In all, about 48,000 compounds went through this assay and about 120 (0.25%) were called active. Inconclusive results (about 4%) are left out. The call rests on the fitted dose curve; in most records, active means well fitted activation curve with a large enough effect; inconclusive means small, poorly fitted or top-dose-only effect, or another doubt; inactive means no such curve, though single readings can be large or run the other way. The list shows a part of the results.

test: Primary qHTS for Identification of Small Molecule Activators of Huntingtin-Antisense Promoter Activity; conditions: HEK293 HTT-AS promoter firefly luciferase reporter, 24 h; series mostly up to 57.5 µM; activity change, positive = activation: at the top concentration; further: nearly all actives have a fitted effect of over 55% in size
Outline: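 HEK293 Fluc reporter, 2,500 cells/well, 24 h pre-culture; cpds up to 57.5 uM final, 24 h 37 degrees C; Dual-Glo, 10 min RT; normalized vehicle = 0%, zero RLU = -100%.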

Activity change, positive = activation, inactive:
COc1cccc(NC(=O)CN2C(=O)c3cccc4cccc2c34)c1 -7.27% [at 11.5 µM, percent change from vehicle, -100% = no light]
Cn1ncc2c(Nc3cc(C(F)(F)F)ccc3Cl)ncnc21 -3.14%
CC(NC(=O)c1ccc2c(c1)N(Cc1ccc(Cl)cc1)C(=O)CS2)c1ccccc1 (configuration not stated) -17.1%
Cc1cn2c(-c3cn[nH]c3)cnc2c(Nc2ccc(C(=O)N3CCNCC3)cc2F)n1 -27.6%
O=C(NNC(=O)c1ccc(CNS(=O)(=O)c2ccc(F)c(Cl)c2)cc1)c1ccccc1 23.1%
CCN(c1cccc(C)c1)S(=O)(=O)c1cc(Br)cc2c1N(C(C)=O)C(C)C2 (configuration not stated) -40.6%
CC1CCN(C(=O)CSc2n[nH]c(-c3ccc(F)cc3)n2)CC1 -14.9%
CC(C)OC(=O)c1ccc(Cn2nnc3sc4c(c3c2=O)CCCC4)cc1 -10.4%
COc1ccc2c(c1)c1c(c(=O)n(-c3ccccc3C)c(=O)n1Cc1cccc(C(F)(F)F)c1)n2C -31.4%
O=C(Cn1ccnc1[N+](=O)[O-])NCCO -2.84%
CCCN(c1c(C)n(C)n(-c2ccccc2)c1=O)S(=O)(=O)c1ccc(C)cc1 -18.2%
COc1ccc(C)cc1NC(=O)c1ccc(NS(=O)(=O)c2c(C)noc2C)cc1 -13%
CCC(C(=O)Nc1cccc(Cl)c1C)n1nc(C)c2sc3ccccc3c2c1=O (configuration not stated) -8.96%
COc1ccc(-c2noc(CN(C)S(=O)(=O)c3c(C)cc(C)cc3C)n2)cc1OC -23%
CC(=O)N1c2ccccc2C(=O)C1N1CCN(c2ccccc2F)CC1 (configuration not stated) -19%
CCOC(=O)c1ccc(NC2=CC(c3ccc(OCC)cc3)N(c3ccc(C(=O)OCC)cc3)C2=O)cc1 (configuration not stated) -13.3%
CCOC(=O)c1cnc2cc(C(F)(F)F)ccc2c1Nc1cc(C)ccc1OC -4.27% [at 11.5 µM, percent change from vehicle, -100% = no light]
Cc1ccc(-c2nc(CCNC(=O)c3ccc(C)c(C)c3)cs2)cc1 -24.9%
CC(C)(C)OC(=O)N1CCC(c2c(C(=O)NCc3ccccc3)cnn2-c2cccc(F)c2)CC1 -28.6%
COc1ccccc1-c1nc2n(n1)C(c1ccccc1Cl)C(C(=O)Nc1cccnc1)=C(C)N2 (configuration not stated) -3.18%
CCCCn1cc(S(=O)(=O)c2ccc(C)cc2)c(=O)c2cc(F)c(N3CCCCC3)cc21 -8.81%
CCOc1ccccc1NC(=O)CSc1nnc2[nH]c(=O)cc(C)n12 -10.7%
Cc1cc(O)c(C(c2ccccc2)N2CCCCC2)c(=O)n1Cc1ccco1 (configuration not stated) 5.88%
CCSc1nn(CC(=O)Nc2cccc(CC)c2)c(N)c1S(=O)(=O)c1ccccc1 -45.1%
COCCCNC(=O)C1CCN(Cc2cc3ccccc3n2Cc2ccccc2C)CC1 -25.2%
Cc1oc(-c2ccc(Cl)cc2)nc1CN1CCCC(C(=O)NCCc2ccc(Cl)cc2)C1 (configuration not stated) -53.5%
Cc1ccc(S(=O)(=O)c2c(O)cc(C)c(NS(=O)(=O)c3ccc(Br)cc3)c2C)cc1 -33%
Cc1ccc(-c2nc3c(c(SCc4ccc(Br)cc4)n2)Cc2c(CO)cnc(C)c2O3)cc1 22.1%
CC(=O)OCC(COC(C)=O)OC(C)=O -5.1%
O=C(CSc1nc2c([nH]c3ccccc32)c(=O)n1-c1ccc(Cl)cc1)N1CCc2ccccc21 -10.1%
CSc1cccc(NC(=O)c2cnn(-c3ccc(F)cc3)c2-n2cccc2)c1 -6.43%
COc1ccc(CCNC(=O)CCc2c(C)c3cc4c(C)c(C)oc4cc3oc2=O)cc1OC -6.17%
O=C(Cn1ncn2c(cc3sccc32)c1=O)NCCc1ccccc1 -2.9%
Cc1ccc2c(=O)cc(C(=O)Nc3ccc(S(=O)(=O)N(C)c4ccccc4)cc3)oc2c1C -3.06%
Cc1ccc(CN2CCC(CNC(=O)c3cnn(-c4ccccc4Cl)c3C3CCN(C(=O)OC(C)(C)C)CC3)CC2)cc1 -34.9%
COc1cc(/C=C/c2nc(C#N)c(N3CCN(C)CC3)o2)cc(OC)c1OC -15.3%
COc1cccc(NS(=O)(=O)c2ccc3c(c2)n(C)c(=O)n3C)c1 -33.1%
COc1ccc(NC(=O)COCc2cc(-c3ccc4c(c3)OCO4)on2)cc1 19.7%
CN(C(=O)c1ccc2c(c1)N(Cc1cccc(Cl)c1)C(=O)c1ccccc1S2(=O)=O)C1CCCCC1 -30.5%
Cc1ccc(Cn2c(SCc3ccc(C(=O)NC4CCCCC4)cc3)nc3ccncc32)cc1 -33.2%
CSc1cccc(NC(=O)C2CCN(c3nc4ccccc4[nH]3)CC2)c1 -5.4%
COc1ccc(Cl)c2sc(NC(=O)c3ccc(S(=O)(=O)N4CCOCC4)cc3)nc12 -16.8%
CCc1ccc(NC(=O)Cn2c(=O)n(-c3ccc(Cl)c(Cl)c3)c(=O)c3c(C)c(C)sc32)cc1 7.32%
COc1ccc(NC(=O)c2c(NCc3cccs3)sc3c2CCC(C)C3)c(OC)c1 (configuration not stated) -15.9%
O=C(CSc1nnc(-c2ccccc2Cl)o1)N1CCCc2ccccc21 -18%
CCCCCN(CCCOC)C(=O)C(CCC(=O)O)NC(=O)c1ccc(Cl)c(Cl)c1 (configuration not stated) -6.31%
Cc1c(C(=O)N(Cc2ccccc2F)C2CCS(=O)(=O)C2)oc2ccccc12 (configuration not stated) -11.7%
Cc1nn(C)c2c1c(C(F)(F)F)cc(=O)n2C(C)C(=O)Nc1ccccc1F (configuration not stated) -43.1%
CCOc1ccc(C(=O)c2cn(CC(=O)Nc3ccc(Cl)cc3)c3cc4c(cc3c2=O)OCO4)cc1 -32.3%
COc1ccc(S(=O)(=O)NCC(c2cccs2)S(=O)(=O)c2ccccc2)cc1OC (configuration not stated) 0.981%
COc1ccc(-c2nnc(SCC(=O)Nc3cccc(C(F)(F)F)c3)s2)cc1 -10.7%
CC(=O)N1CCc2cc(Br)cc(S(=O)(=O)CCC(=O)N3CCN(c4ccc(F)cc4)CC3)c21 -26.9%
Cc1ccc(NC(=O)Nc2cc(C(F)(F)F)ccc2F)cc1Nc1ccc2c(c1)NC(=O)C2=Cc1ccc[nH]1 -37.2%
CN1CC[C@H](c2c(O)cc(O)c3c(=O)cc(-c4ccccc4Cl)oc23)[C@H](O)C1 -35%
COc1ccc(CC(=O)NCc2ccc3c(c2)CCN3C(=O)c2ccccc2)cc1OC -6.89%
COc1ccc(C2=NC(c3ccncc3)=Nc3ccc(Br)cc3N2)cc1 -19.1%
CCn1cc(C(=O)N2CCN(c3ccc(F)cc3)CC2)c(=O)c2cc(S(=O)(=O)N(C)C3CCCCC3)ccc21 -1.52%
